These are yes or no findings as the source states them, for the method shown. In cells and extracts the contact can be indirect. Some results given as binding are weak or reduced against the parent protein; the word gives no strength. Values belong to the molecule of their own block, whether it stands above or below them.
Experiments:
Assay in all cases: co-IP; anti-Flag M2 affinity gel on 5 mg of extract of transfected HEK293T cells in Triton lysis buffer, overnight at 4 °C; western blot with anti-Flag and anti-TNKS1/2
Flag-USP25FL (human) = Flag-USP25FL (human) (UniProt Q9UHP3)
Flag-USP25NCD (human) = Flag-USP25NCD (human) (UniProt Q9UHP3)
Flag-USP25FL ΔIL (human) = Flag-USP25FL ΔIL (human) (UniProt Q9UHP3)
[1] = molecular target: Flag-USP25NCD ΔIL (human) (UniProt Q9UHP3)

Protein sequences, listed by entry. Tags and fused reporters are not part of them. Lines headed by an entry give the natural chain unless they say otherwise; changes in a name come on top. Chains listed by the source or under a name are the forms on record and can include a tag or linker. Residues count along the entry.
UniProt Q9UHP3: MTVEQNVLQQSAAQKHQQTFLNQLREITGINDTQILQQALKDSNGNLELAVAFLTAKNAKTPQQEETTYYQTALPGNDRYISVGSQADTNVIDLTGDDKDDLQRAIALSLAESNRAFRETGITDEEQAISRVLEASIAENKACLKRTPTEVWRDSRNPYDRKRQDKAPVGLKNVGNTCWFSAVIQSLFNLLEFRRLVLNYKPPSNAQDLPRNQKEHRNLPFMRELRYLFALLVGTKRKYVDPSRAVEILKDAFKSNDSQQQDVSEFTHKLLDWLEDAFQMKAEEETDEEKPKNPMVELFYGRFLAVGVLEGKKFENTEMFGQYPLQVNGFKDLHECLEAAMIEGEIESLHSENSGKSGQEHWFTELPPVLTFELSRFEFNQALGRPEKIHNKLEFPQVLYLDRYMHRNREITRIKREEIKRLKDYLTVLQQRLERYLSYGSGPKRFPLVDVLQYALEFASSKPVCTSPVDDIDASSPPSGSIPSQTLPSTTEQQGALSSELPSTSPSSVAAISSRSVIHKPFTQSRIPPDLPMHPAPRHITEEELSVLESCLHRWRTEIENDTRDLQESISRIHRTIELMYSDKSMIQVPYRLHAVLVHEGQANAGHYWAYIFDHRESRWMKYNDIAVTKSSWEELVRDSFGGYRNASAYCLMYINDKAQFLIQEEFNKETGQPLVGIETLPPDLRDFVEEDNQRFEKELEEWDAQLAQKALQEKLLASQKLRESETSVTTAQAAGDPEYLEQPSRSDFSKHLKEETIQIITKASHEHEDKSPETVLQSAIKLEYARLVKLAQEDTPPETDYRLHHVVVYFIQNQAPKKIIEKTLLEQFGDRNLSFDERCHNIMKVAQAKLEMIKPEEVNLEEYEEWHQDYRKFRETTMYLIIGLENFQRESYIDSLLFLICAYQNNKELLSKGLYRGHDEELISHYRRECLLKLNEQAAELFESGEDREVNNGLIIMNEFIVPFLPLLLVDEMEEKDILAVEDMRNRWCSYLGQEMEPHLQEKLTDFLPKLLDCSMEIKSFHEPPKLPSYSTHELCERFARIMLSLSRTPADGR
Flag-USP25NCD: residues 18-714 of Q9UHP3
Flag-USP25FL ΔIL (Q9UHP3, form named): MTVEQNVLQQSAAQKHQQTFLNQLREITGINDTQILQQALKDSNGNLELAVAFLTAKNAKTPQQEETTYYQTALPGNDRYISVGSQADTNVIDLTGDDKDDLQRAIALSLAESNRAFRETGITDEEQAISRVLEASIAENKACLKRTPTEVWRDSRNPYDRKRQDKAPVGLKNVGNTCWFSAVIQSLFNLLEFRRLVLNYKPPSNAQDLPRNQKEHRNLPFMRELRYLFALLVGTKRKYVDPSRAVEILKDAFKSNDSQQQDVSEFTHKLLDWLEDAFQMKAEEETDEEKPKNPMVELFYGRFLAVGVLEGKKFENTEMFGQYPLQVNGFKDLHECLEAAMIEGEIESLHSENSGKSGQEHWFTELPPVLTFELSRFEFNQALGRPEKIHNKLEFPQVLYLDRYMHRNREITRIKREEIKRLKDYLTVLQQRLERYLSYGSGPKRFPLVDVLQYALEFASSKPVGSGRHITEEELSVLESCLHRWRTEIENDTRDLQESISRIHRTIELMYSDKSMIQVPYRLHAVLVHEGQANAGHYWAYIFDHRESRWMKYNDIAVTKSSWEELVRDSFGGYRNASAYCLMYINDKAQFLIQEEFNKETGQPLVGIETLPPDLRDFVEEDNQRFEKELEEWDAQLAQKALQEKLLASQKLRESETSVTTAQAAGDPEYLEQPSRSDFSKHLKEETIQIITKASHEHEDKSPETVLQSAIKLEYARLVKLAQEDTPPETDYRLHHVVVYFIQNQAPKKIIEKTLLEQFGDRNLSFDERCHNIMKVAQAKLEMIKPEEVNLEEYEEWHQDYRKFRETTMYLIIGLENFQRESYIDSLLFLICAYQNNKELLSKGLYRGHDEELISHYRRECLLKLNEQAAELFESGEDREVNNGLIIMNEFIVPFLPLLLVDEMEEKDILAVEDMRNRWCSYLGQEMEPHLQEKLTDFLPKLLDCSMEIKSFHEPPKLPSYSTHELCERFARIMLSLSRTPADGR
Flag-USP25NCD ΔIL (Q9UHP3, form named): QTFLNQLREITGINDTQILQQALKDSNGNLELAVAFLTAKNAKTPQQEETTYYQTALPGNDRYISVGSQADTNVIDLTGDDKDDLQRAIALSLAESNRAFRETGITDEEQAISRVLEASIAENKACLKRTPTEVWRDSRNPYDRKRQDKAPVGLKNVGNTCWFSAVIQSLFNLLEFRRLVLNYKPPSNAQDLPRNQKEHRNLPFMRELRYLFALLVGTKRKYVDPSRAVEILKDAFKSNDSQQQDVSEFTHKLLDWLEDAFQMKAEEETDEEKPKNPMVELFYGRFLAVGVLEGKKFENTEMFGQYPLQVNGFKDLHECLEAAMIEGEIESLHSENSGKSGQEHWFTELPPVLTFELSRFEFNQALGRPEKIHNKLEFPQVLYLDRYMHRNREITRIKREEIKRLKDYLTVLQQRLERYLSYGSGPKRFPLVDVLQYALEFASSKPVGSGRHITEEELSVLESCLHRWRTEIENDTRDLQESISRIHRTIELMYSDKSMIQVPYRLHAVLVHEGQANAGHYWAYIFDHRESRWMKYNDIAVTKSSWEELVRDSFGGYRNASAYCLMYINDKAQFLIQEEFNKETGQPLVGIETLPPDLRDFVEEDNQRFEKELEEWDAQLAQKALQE
UniProt O95271: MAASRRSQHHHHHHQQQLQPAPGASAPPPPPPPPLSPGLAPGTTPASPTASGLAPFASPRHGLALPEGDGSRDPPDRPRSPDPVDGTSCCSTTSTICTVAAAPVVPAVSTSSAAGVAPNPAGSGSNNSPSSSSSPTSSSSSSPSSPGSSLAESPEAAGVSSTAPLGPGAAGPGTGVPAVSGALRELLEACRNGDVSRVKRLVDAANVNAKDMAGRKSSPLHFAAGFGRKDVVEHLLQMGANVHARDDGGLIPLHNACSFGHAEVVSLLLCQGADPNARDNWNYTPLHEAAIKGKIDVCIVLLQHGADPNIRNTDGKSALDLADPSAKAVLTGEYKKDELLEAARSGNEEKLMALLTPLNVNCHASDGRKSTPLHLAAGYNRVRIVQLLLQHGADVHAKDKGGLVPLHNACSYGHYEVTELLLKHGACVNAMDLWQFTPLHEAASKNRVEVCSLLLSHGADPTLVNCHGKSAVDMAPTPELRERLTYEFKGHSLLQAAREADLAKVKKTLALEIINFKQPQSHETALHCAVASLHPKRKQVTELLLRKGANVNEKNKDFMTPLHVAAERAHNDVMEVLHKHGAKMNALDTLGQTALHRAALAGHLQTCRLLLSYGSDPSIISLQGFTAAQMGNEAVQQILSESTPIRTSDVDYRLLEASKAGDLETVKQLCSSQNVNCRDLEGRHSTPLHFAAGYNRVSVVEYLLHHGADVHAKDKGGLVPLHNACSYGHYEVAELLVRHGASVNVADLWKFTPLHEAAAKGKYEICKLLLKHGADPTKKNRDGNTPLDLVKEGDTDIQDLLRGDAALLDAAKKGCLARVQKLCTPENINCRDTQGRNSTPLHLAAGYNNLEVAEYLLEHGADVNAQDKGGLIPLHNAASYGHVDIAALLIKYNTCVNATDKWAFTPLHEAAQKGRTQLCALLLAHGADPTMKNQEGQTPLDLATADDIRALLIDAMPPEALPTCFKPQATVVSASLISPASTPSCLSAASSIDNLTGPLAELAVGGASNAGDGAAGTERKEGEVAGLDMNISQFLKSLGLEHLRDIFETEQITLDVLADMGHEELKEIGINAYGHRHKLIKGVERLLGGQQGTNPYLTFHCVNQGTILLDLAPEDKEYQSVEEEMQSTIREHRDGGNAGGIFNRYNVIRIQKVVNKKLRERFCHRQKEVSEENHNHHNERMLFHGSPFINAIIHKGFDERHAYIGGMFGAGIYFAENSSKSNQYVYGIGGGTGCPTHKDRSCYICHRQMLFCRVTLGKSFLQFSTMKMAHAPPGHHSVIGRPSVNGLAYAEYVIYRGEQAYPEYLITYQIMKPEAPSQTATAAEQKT

- binding (Flag-USP25FL (human)): binds
- binding (Flag-USP25NCD (human)): no binding
- binding (Flag-USP25FL ΔIL (human)): binds
- binding [1]: no binding
Molecule: tankyrase 1 (endogenous) (from UniProt O95271 1-1327)

- binding (Flag-USP25FL (human)): binds
- binding (Flag-USP25NCD (human)): no binding
- binding (Flag-USP25FL ΔIL (human)): binds
- binding [1]: no binding
B1: tankyrase 2 (endogenous) (protein, UniProt Q9H2K2 1-1166)
chain: MSGRRCAGGGAACASAAAEAVEPAARELFEACRNGDVERVKRLVTPEKVNSRDTAGRKSTPLHFAAGFGRKDVVEYLLQNGANVQARDDGGLIPLHNACSFGHAEVVNLLLRHGADPNARDNWNYTPLHEAAIKGKIDVCIVLLQHGAEPTIRNTDGRTALDLADPSAKAVLTGEYKKDELLESARSGNEEKMMALLTPLNVNCHASDGRKSTPLHLAAGYNRVKIVQLLLQHGADVHAKDKGDLVPLHNACSYGHYEVTELLVKHGACVNAMDLWQFTPLHEAASKNRVEVCSLLLSYGADPTLLNCHNKSAIDLAPTPQLKERLAYEFKGHSLLQAAREADVTRIKKHLSLEMVNFKHPQTHETALHCAAASPYPKRKQICELLLRKGANINEKTKEFLTPLHVASEKAHNDVVEVVVKHEAKVNALDNLGQTSLHRAAYCGHLQTCRLLLSYGCDPNIISLQGFTALQMGNENVQQLLQEGISLGNSEADRQLLEAAKAGDVETVKKLCTVQSVNCRDIEGRQSTPLHFAAGYNRVSVVEYLLQHGADVHAKDKGGLVPLHNACSYGHYEVAELLVKHGAVVNVADLWKFTPLHEAAAKGKYEICKLLLQHGADPTKKNRDGNTPLDLVKDGDTDIQDLLRGDAALLDAAKKGCLARVKKLSSPDNVNCRDTQGRHSTPLHLAAGYNNLEVAEYLLQHGADVNAQDKGGLIPLHNAASYGHVDVAALLIKYNACVNATDKWAFTPLHEAAQKGRTQLCALLLAHGADPTLKNQEGQTPLDLVSADDVSALLTAAMPPSALPSCYKPQVLNGVRSPGATADALSSGPSSPSSLSAASSLDNLSGSFSELSSVVSSSGTEGASSLEKKEVPGVDFSITQFVRNLGLEHLMDIFEREQITLDVLVEMGHKELKEIGINAYGHRHKLIKGVERLISGQQGLNPYLTLNTSGSGTILIDLSPDDKEFQSVEEEMQSTVREHRDGGHAGGIFNRYNILKIQKVCNKKLWERYTHRRKEVSEENHNHANERMLFHGSPFVNAIIHKGFDERHAYIGGMFGAGIYFAENSSKSNQYVYGIGGGTGCPVHKDRSCYICHRQLLFCRVTLGKSFLQFSAMKMAHSPPGHHSVTGRPSVNGLALAEYVIYRGEQAYPEYLITYQIMRPEGMVDG

— paper PMC6255862, “A quaternary tetramer assembly inhibits the deubiquitinating activity of USP25” (Nature Communications, 2018)
